The supplement of paper PMC3334620
Whole data set: some 33,000 sequences, median “E-score (-0.5 to 0.5)” near -0.054, cut for the highest 2% near 0.35. The list shows a part of the results.

These sequences were tested against T1, Stb5 (UniProt P38699) (assay: PBM E-score (8-mer binding enrichment) (E-score (-0.5 to 0.5)); higher = stronger / more preferred TF binding; most listed sequences are background and not binding sites). Conditions: protein concentration: 200 nM; construct: GST-full length.
T1 sequence: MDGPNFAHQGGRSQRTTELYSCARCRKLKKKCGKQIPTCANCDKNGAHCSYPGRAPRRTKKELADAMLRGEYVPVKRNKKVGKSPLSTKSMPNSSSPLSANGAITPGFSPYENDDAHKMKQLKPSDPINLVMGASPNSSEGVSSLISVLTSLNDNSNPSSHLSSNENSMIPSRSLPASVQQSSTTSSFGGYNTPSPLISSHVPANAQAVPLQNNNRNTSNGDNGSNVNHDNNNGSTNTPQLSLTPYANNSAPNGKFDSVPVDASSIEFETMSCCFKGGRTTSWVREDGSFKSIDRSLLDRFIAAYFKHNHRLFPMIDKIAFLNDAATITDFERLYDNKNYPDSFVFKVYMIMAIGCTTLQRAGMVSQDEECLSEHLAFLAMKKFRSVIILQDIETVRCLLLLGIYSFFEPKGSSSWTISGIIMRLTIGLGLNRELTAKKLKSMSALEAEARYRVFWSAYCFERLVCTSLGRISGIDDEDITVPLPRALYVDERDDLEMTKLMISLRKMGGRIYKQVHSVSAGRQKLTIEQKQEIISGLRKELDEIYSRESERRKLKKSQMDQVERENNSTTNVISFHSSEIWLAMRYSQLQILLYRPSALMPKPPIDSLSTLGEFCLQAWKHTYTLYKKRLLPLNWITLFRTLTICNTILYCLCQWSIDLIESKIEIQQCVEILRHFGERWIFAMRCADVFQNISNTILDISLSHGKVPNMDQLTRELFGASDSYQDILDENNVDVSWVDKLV
Outline: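 Yeast transcription factors, full-length or as DNA-binding domains, were expressed with a GST tag using PURExpress in vitro transcription/translation. At about 100-200 nM they were applied to universal all-10-mer Agilent arrays, double-stranded by primer extension on fresh or once-stripped slides. Fluorescent anti-GST detected bound protein, and masliner normalised the scans. E-scores for ungapped eight-base words, pooled with reverse complements, came from the Universal PBM Analysis Suite.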

Point of comparison: AGCTAGCC, “PBM E-score” value -0.165. Against it:
- CGATCCCG — higher, 0.123
- GAGGGGCC — higher, -0.0329
- CTCCGCCA — higher, 0.293
- AATATACT — higher, -0.055
- CCTTACAA — higher, 0.0129
- AGTAGTAG — higher, -0.0272
- ACTTGCCC — higher, -0.022
- GGGACCAA — higher, 0.0158
- GCTCAGCC — higher, -0.145
- CAAACTAA — higher, 0.0135
- AAGGATTC — higher, -0.143
- GAGGACAA — lower, -0.196
- CCCTGACA — higher, -0.0666
- CCCCGCGA — higher, 0.272
- ATAGCCCA — lower, -0.245
- TACAACGA — higher, -0.0575
- CAATTTGA — higher, -0.103
- CGGAGGTC — higher, 0.122
- ACACGCTG — lower, -0.195
- CGAAACCC — higher, 0.342
- ATAAGCTC — higher, 0.0511
- ACTTCGCT — higher, -0.0885
- CATAGTTA — higher, -0.146
- CTGTCGGC — higher, 0.35
- AGCGTGGC — lower, -0.278
- AATCTATG — higher, -0.164
- GATTTGAC — higher, 0.0761
- CCAGCTGC — higher, -0.0589
- ATGATCCA — lower, -0.191
- ACACCATA — higher, -0.0728
- CCCATCTA — higher, -0.0695
- ACTACGTA — higher, 0.111
- AATATTGT — higher, 0.0368
- GCGTTTGA — higher, -0.00629
- AGCATATC — higher, -0.0161
- TAACCATA — higher, -0.0918
- AATCTAAC — higher, -0.0721
- AGCGCTAC — higher, 0.0207
- CTGCCATA — higher, 0.0237
- AAAGAGGG — higher, -0.0949
- GTAGATGA — higher, -0.128
- GGCGAAAC — higher, 0.0772
- TGGATCCA — lower, -0.224
- AATCTTAG — lower, -0.204
- AGTGTTAT — higher, -0.1
- GATCCCAC — higher, -0.0539
- ATTTGCGC — higher, 0.0733
- GGTTGGCA — higher, -0.0738
- CTAAGTCA — lower, -0.215
- CATTCGTC — higher, -0.0324
- AATTCGCC — higher, 0.0741
- GCGGGCAA — higher, 0.171
- ATAGCTGC — higher, -0.0541
- CCCAACTA — lower, -0.222
- CCCGAGAG — higher, 0.0886
- CTACGTGA — higher, -0.119
- AGCCATCA — lower, -0.244
- GACTGAAA — higher, -0.0622
- CGAAAACC — higher, 0.0959
- CGTTAACC — higher, 0.0895
- AATATTAT — higher, 0.198
- TCTAGGAA — higher, -0.101
- GAGAAAGA — higher, -0.154
- CACTACGC — higher, -0.137
- ATCCAGGA — lower, -0.231
- GAGCAAAA — lower, -0.244
- CTCCCTCC — higher, -0.0908
- CAACTGCG — higher, 0.00196
- AACCATAC — higher, 0.0519
- TGACTACA — higher, -0.146
- ACATTCGG — higher, 0.142
- GAACAGCC — higher, -0.134
- CAGGTAGG — higher, -0.138
- CACTTGGA — lower, -0.278
- ACTAGTAA — lower, -0.246
- AGAGTCAC — higher, -0.125
- AGGCCCTA — higher, -0.0592
- AGATACTA — higher, 0.0718
- CCACTCCC — higher, -0.0944
- ATCTATAC — higher, 0.0763
- CGGCTTGC — higher, 0.102
- AACACAGC — higher, -0.0466
- GGTTGGGA — lower, -0.192
- CATATCGA — higher, 0.0156
- CAGGCGGC — higher, 0.267
- CTCAACAC — higher, -0.0325
- ACACTTAT — higher, -0.0106
- AATCCTCT — lower, -0.302
- ACCGTACT — higher, 0.122
- CACTTCAG — higher, -0.0746
- ACCGTTGA — higher, 0.233
- CTGACCCC — higher, 0.078
- ACTCCGTC — higher, 0.367
- GCCCGAAC — higher, 0.106
- CTCTCGGC — higher, 0.2
- AAGTGGGA — higher, -0.104
- CCTCAACC — lower, -0.221
- GGAAGGAA — higher, -0.0337
- AGTCCCTC — lower, -0.232
- ATTCGAGA — lower, -0.253
- AAGGTATG — higher, 0.0318
- ACTTGTGA — lower, -0.262
- ACCCACCC — higher, 0.167
- GGTAGTAC — higher, 0.177
- GACATCAA — higher, -0.0843
- CTCCCGCA — higher, 0.233
- AACACAAG — lower, -0.22
- TGAAAACA — higher, -0.0413
- AGAAAGCA — higher, -0.119
- ATACAGAG — higher, -0.1
- GCCGCAAC — higher, 0.237
- GGTGCCCA — higher, -0.126
- ATCAACGC — lower, -0.202
- AGTACGTG — lower, -0.314
- AAAATCCC — higher, 0.292
- GCTGACAA — higher, -0.0373
- CTTGCAAC — higher, -0.154
- AAGCCTGA — lower, -0.252
- GTACTAGA — higher, -0.0975
- ACTTACAG — higher, -0.0586
- CGCGGTCA — higher, 0.21
- ACTTAGTA — higher, -0.0263
- GAACCTAC — higher, -0.143
- ACATCGGG — higher, 0.202
- CAGTCTCG — lower, -0.182
- CTCTACTA — higher, -0.105
- ATACAGGG — higher, -0.0237
- ATACGCGA — higher, 0.0474
- CCGATGCA — higher, 0.231
- AATACGAT — higher, 0.117
- GTTGGCGA — higher, 0.0124
- CCGGATCA — higher, 0.165
- GATAGCGA — higher, -0.0891
- CCTGTGCC — higher, -0.148
- CTGGTCCA — higher, 0.163
- ATACCGCA — higher, 0.325
- CCAGCTAG — lower, -0.234
- CTCAGGCA — higher, 0.0434
- AGAAGAAG — lower, -0.262
- ATTGTCTA — higher, -0.12
- ATCTGATA — higher, -0.148
- GCAATCGC — higher, 0.0604
- AATGGCTC — lower, -0.272
- CGTAGGCA — higher, -0.0569
- CTAATTGA — higher, -0.0507
- CCACAATA — higher, -0.0735
- ATATTAAC — higher, 0.0995
- ATAACAAC — higher, 0.13
- GCTCGTTA — higher, -0.0351
- CCTAACTC — higher, 0.0244
- CAAACGTC — higher, -0.0822
- CTCTGCCA — lower, -0.235
- GCATACCC — higher, 0.019
- CTCGGACA — higher, 0.233
- ACACTGAA — lower, -0.205
- GCGACAAA — higher, -0.0334
- ATCTCAAA — higher, -0.0367
- GAACTGCA — higher, -0.157
- GATATCAA — higher, -0.0352
- CATGGGAG — lower, -0.174
- CAAGACTA — lower, -0.234
- GACTCCAA — higher, -0.0167
- TGTGGCAA — higher, 0.0162
- CCTGACCA — lower, -0.291
- GCTACAGA — lower, -0.183
- CGCGGTAG — higher, 0.249
- CAGACTTA — lower, -0.303
- AGATTGAA — higher, 0.0136
- TCTCCGAA — higher, 0.154
- AACATACC — higher, 0.123
- ACAGGATA — higher, -0.14
